Each structure is given as a SMILES string. Out of some 150,000 compounds screened, about 540 (0.36%) showed an effect of 50% or more. The list shows a part of the results.

The assay deals with Plasmodium falciparum. Briefly: Primary screen in NF54 nanoGlo assay, in single point, at 2uM, 72h; a lower Z score goes with more inhibition. It counts as functional, Erythrocyte. The conditions noted are these: timepoint 72 hour.
Turning to `C/C=C(\C)CN1CCC(CCC(=O)Nc2ccc3c(c2)OCCO3)CC1`, the “% Inhibition” value is listed as 0% and the Z score was found to be 0.05.
For `NS(=O)(=O)Cc1ccc(CNc2ccc3ccc(F)cc3n2)cc1`, in that order: 35% and -4.66.
As to `COc1cccc([C@H]2C[C@H](NCc3cn(C)nc3C)C2)c1`, the “% Inhibition” value is -9% and the Z score was determined as 1.22.
For `CC(=O)Nc1nc2ccc(NC(=O)c3ccc(C)nc3)cc2s1`, in that order: 0% and -0.07.
With `CCCCn1cc(S(=O)(=O)NCc2ccccn2)c2cccnc21`, the “% Inhibition” value is -8% and the Z score is 1.47.
For `Cc1cccc(CN2CCC(Cn3ccnc3C)CC2)n1`, in that order: 0% and -0.03.
Turning to `CCOC(=O)CN1CCNC(=O)CC12CN(C(=O)OC(C)(C)C)C2`, the “% Inhibition” value was 19% and the Z score was -2.18.
As for `COc1cc2c(cc1C(=O)N1C[C@@H](CN3CCCCC3)[C@@H](CO)C1)CCC2`, the “% Inhibition” value is -16% and the Z score is given as 3.37.
In the same order, the values of `CCN(Cc1cnn(CC)c1)c1nc(C)cc(C)c1C#N` are -6% and 1.06.
Regarding `COc1ccccc1C1CC1NC(=O)NC1c2ccccc2CC1O` (stereo not given), the “% Inhibition” value is on record as -5% and the Z score is recorded as 0.65.
Take `O=C(NC[C@H]1COC2(CCCC2)O1)Nc1c(F)cccc1Oc1ccccc1`: the “% Inhibition” value is -12% and the Z score amounted to 1.88.
As to `CC(F)(F)C(=O)N1CCC[C@H](S(=O)(=O)N2CCc3ccccc32)C1`, the “% Inhibition” value is recorded as 0% and the Z score is 0.06.
In the same order, the values of `c1ccc2nc(O[C@H]3CCNC3)ccc2c1` are -11% and 2.04.
For `CN(Cc1ccc2c(c1)OCO2)C(=O)[C@H]1CC1(Cl)Cl`, in that order: -11% and 1.59.
On to `Cn1cc(-c2ccc3c(c2)OCC[C@@H]2CC[C@H](O)[C@@H](CNC(=O)[C@@H]4C[C@@H](CN4Cc4ccc(F)c(F)c4)NC3=O)O2)cn1`, for which the “% Inhibition” value amounted to 1% and the Z score is -0.16.
On to `Cc1sc2ncnc(NCc3nn(C)cc3C(F)F)c2c1C`, for which the “% Inhibition” value is reported as -6% and the Z score came to 1.
In the same order, the values of `CN(C(=O)[C@@H](c1ccc(Cl)cc1Cl)N1CCOCC1)C1CC(C)(C)C1` are 17% and -1.99.
In the case of `COCCS(=O)(=O)NCCCCn1ccnc1`, the “% Inhibition” value is -10% and the Z score was 1.86.
`O=C1NC(=O)C(C2CC2c2ccccc2)N1` (stereo not given): the “% Inhibition” value was -7% and the Z score is on record as 1.12.
In the case of `CNS(=O)(=O)Nc1ccc(NC(=O)[C@@H]2CCCCC(=O)N2)cc1`, the “% Inhibition” value was -7% and the Z score turned out to be 0.96.
Take `C#CCOC1CCN(CCN2CCCCC2)CC1`: the “% Inhibition” value was -11% and the Z score is on record as 1.47.
For `Cc1cnn(CC2CCN(C(=O)CCn3nnnc3C)CC2)c1`, in that order: -7% and 1.08.
For `CCNC(=O)c1ccnc(N2CCC(C(=O)O)(n3ccnc3C)CC2)c1`, the “% Inhibition” value was -4% and the Z score worked out at 0.68.
In the same order, the values of `CN(Cc1nnc2ccccn12)c1ccnc2cc(F)ccc12` are -15% and 1.97.
Take `CC(=O)Nc1nc(C(=O)N[C@H]2CCCc3ccc(C)cc32)cs1`: the “% Inhibition” value is on record as -2% and the Z score is 0.43.
Consider `CC1C(=O)Nc2cccnc2N1S(=O)(=O)C(C)C(=O)N(C)C` (stereo not given), for which the “% Inhibition” value amounted to 1% and the Z score is on record as -0.19.
For `c1ccc(Cc2noc(-c3nc(-c4ccccc4)no3)n2)cc1`, the “% Inhibition” value is recorded as -14% and the Z score came out at 1.82.
In the same order, the values of `Cc1nn(-c2ccc3nnc(C)n3n2)c2c1[C@@H](c1ccc(O)c(Cl)c1)CC(=O)N2` are 5% and -0.59.
In the same order, the values of `CC(C)(O)C1CN(C(=O)NC[C@H]2Cc3ccccc3CN2)C1` are -3% and 0.61.
Consider `CCOc1cc(-c2noc(-c3cc4n(n3)C[C@@H](c3ccc(Cl)cc3)OC4)n2)ccc1OC`, for which the “% Inhibition” value is reported as -9% and the Z score was determined as 1.07.
Consider `O=C1CCN(Cc2ccc3cc[nH]c3c2)C2(CN1)COC2`, for which the “% Inhibition” value is -12% and the Z score was determined as 1.67.
In the same order, the values of `CC(C)(N)COc1ncccc1C(F)(F)F` are -31% and 3.66.
Turning to `O=C(c1nc2sccn2c1CN1CCC[C@H](CN2CCCCC2)C1)N1CCCC1`, the “% Inhibition” value is recorded as -8% and the Z score was 1.23.
For `CCOC1CC(OC(=O)CCc2c(C)nn(C)c2C)C1(CC)CC` (stereo not given), in that order: -13% and 2.19.
`Cc1cnc([C@@H]2CCCN2C(=O)NCc2ccccc2)n1Cc1ccc(F)cc1`: the “% Inhibition” value was found to be 5% and the Z score is listed as -0.71.
Regarding `Cc1n[nH]c(C(=O)N(C)CC2CC2)c1Br`, the “% Inhibition” value is reported as -3% and the Z score is 0.33.
In the same order, the values of `COc1cccc(CNC(=O)c2c(OC)cc(=O)n3c2CCN(C(=O)CC2CC2)CC3)c1` are -12% and 1.73.
As for `COCCN(Cc1ccsc1)S(=O)(=O)c1cnn(C)c1`, the “% Inhibition” value was -6% and the Z score stood at 1.12.
In the same order, the values of `Cc1nnc2n1CC1CCC(C2)N1C(=O)CCc1conc1-c1ccccc1` (stereo not given) are -13% and 1.74.
With `COCC1(NC(=O)Nc2ccc3[nH]ccc3c2)CCCC1`, the “% Inhibition” value is given as -18% and the Z score was determined as 2.22.
Take `CCCC(C)(C)NC(=O)Cc1cccc(N)c1`: the “% Inhibition” value is listed as -1% and the Z score is listed as 0.11.
For `CC(=O)NC1CN(c2ncnc3c(C)csc23)C1`, in that order: -10% and 2.01.
In the same order, the values of `CCN1CN([C@@H](C)c2ncc(C)o2)CC1=O` are -9% and 0.87.
With `CCOCc1nc(CCC(N)=O)n(-c2cccc(C)c2C)n1`, the “% Inhibition” value is on record as -23% and the Z score came out at 2.71.
Take `C[C@@H](C(=O)O)n1cc(-c2cccc3c2OC(F)(F)O3)cn1`: the “% Inhibition” value was -1% and the Z score is 0.18.
For `CN(Cc1cc[nH]n1)C(=O)NCCOc1cccc(Cl)c1Cl`, in that order: -3% and 0.51.
Take `Cc1nnc([C@H]2CCN(C(=O)c3cccs3)C2)o1`: the “% Inhibition” value is -7% and the Z score is listed as 0.99.
For `O=C(c1ccc(Cl)cc1OC1CCN(CCCC(F)(F)F)CC1)N1CCCCC1`, in that order: -11% and 1.26.
Regarding `COCc1nc(C)cc(NCCCn2cncn2)n1`, the “% Inhibition” value is -9% and the Z score is 1.85.
Regarding `COc1ccc(-c2noc(-c3cc(-c4ccccc4)nc4ccccc34)n2)cc1`, the “% Inhibition” value is on record as -1% and the Z score came out at 0.27.
As for `CO[C@H]1C[C@H](C(=O)N2CC(C)(C)OC(C)(C)C2)N(C(C)=O)C1`, the “% Inhibition” value turned out to be 0% and the Z score is given as 0.07.
On to `CN(Cc1ccc[nH]1)C(=O)C1(Cc2ccc(F)cc2)CCOCC1`, for which the “% Inhibition” value is -9% and the Z score is on record as 1.12.
For `CC1=NO[C@@H](CNc2nc3ccccc3o2)C1`, in that order: -4% and 0.79.
For `Clc1ccccc1C[C@H]1CN(CCCn2cccn2)CCO1`, in that order: 4% and -0.59.
For `COc1ccc(C(=O)N2CCN(c3ccc(NC(=O)Cc4ccc(F)cc4)cn3)CC2)cc1`, in that order: -11% and 1.33.
